Laboratory results taken from article PMC9911399, “Two distinct binding modes provide the RNA-binding protein RbFox with extraordinary sequence specificity”.
Numbering of substitutions follows the chain as printed; changes in the protein carry UniProt numbers. The list shows a part of the results.

T1: RBFOX1 RRM (Homo sapiens, UniProt Q9NWB1 109-208)
T1 sequence: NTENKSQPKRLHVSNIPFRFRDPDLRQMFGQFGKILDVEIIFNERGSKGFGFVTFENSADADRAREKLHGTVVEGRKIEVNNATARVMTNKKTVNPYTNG

B1: CAGCGCG (DNA:RNA)
RNA: GGGAGACCGGAAUUCAGAUUGUCCCAGCGCGUUAAAUCCCGUCGUAGCCACCA
DNA 1: CAATCTGAATTCCGGTCTCCC
DNA 2: TGGTGGCTACGACGGGATT
B2: CUACGGU (DNA:RNA)
RNA: B1 RNA with A26U, G27A, C30G, G31U
DNA 1: CAATCTGAATTCCGGTCTCCC
DNA 2: TGGTGGCTACGACGGGATT
B3: GAGAGCU (DNA:RNA)
RNA: B1 RNA with C25G, C28A, G31U
DNA 1: CAATCTGAATTCCGGTCTCCC
DNA 2: TGGTGGCTACGACGGGATT
B4: AAAGGCG (DNA:RNA)
RNA: B1 RNA with C25A, G27A, C28G
DNA 1: CAATCTGAATTCCGGTCTCCC
DNA 2: TGGTGGCTACGACGGGATT
B5: GAGUCAU (DNA:RNA)
RNA: B1 RNA with C25G, C28U, G29C, C30A, G31U
DNA 1: CAATCTGAATTCCGGTCTCCC
DNA 2: TGGTGGCTACGACGGGATT
B6: CCCAGGC (DNA:RNA)
RNA: B1 RNA with A26C, G27C, C28A, C30G, G31C
DNA 1: CAATCTGAATTCCGGTCTCCC
DNA 2: TGGTGGCTACGACGGGATT
B7: AUGAAAC (DNA:RNA)
RNA: B1 RNA with C25A, A26U, C28A, G29A, C30A, G31C
DNA 1: CAATCTGAATTCCGGTCTCCC
DNA 2: TGGTGGCTACGACGGGATT
B8: AGUCUUG (DNA:RNA)
RNA: B1 RNA with C25A, A26G, G27U, G29U, C30U
DNA 1: CAATCTGAATTCCGGTCTCCC
DNA 2: TGGTGGCTACGACGGGATT
B9: GUAGCAG (DNA:RNA)
RNA: B1 RNA with C25G, A26U, G27A, C28G, G29C, C30A
DNA 1: CAATCTGAATTCCGGTCTCCC
DNA 2: TGGTGGCTACGACGGGATT
B10: CAACCGG (DNA:RNA)
RNA: B1 RNA with G27A, G29C, C30G
DNA 1: CAATCTGAATTCCGGTCTCCC
DNA 2: TGGTGGCTACGACGGGATT
B11: CCAGGGC (DNA:RNA)
RNA: B1 RNA with A26C, G27A, C28G, C30G, G31C
DNA 1: CAATCTGAATTCCGGTCTCCC
DNA 2: TGGTGGCTACGACGGGATT
B12: CUGUCGG (DNA:RNA)
RNA: B1 RNA with A26U, C28U, G29C, C30G
DNA 1: CAATCTGAATTCCGGTCTCCC
DNA 2: TGGTGGCTACGACGGGATT
B13: AGACAGU (DNA:RNA)
RNA: B1 RNA with C25A, A26G, G27A, G29A, C30G, G31U
DNA 1: CAATCTGAATTCCGGTCTCCC
DNA 2: TGGTGGCTACGACGGGATT
B14: GUUCAAA (DNA:RNA)
RNA: B1 RNA with C25G, A26U, G27U, G29A, C30A, G31A
DNA 1: CAATCTGAATTCCGGTCTCCC
DNA 2: TGGTGGCTACGACGGGATT
B15: UCAAUGG (DNA:RNA)
RNA: B1 RNA with C25U, A26C, G27A, C28A, G29U, C30G
DNA 1: CAATCTGAATTCCGGTCTCCC
DNA 2: TGGTGGCTACGACGGGATT
B16: UGAAGGU (DNA:RNA)
RNA: B1 RNA with C25U, A26G, G27A, C28A, C30G, G31U
DNA 1: CAATCTGAATTCCGGTCTCCC
DNA 2: TGGTGGCTACGACGGGATT
B17: GUUGUUC (DNA:RNA)
RNA: GGGAGACCGGAAUUCAGAUUGUCCGUUGUUCUUAAAUCCCGUCGUAGCCACCA
DNA 1: CAATCTGAATTCCGGTCTCCC
DNA 2: TGGTGGCTACGACGGGATT
B18: UCGGUUC (DNA:RNA)
RNA: B17 RNA with G25U, U26C, U27G
DNA 1: CAATCTGAATTCCGGTCTCCC
DNA 2: TGGTGGCTACGACGGGATT
B19: CCACGCG (DNA:RNA)
RNA: B1 RNA with A26C, G27A
DNA 1: CAATCTGAATTCCGGTCTCCC
DNA 2: TGGTGGCTACGACGGGATT
B20: UUCCAUA (DNA:RNA)
RNA: B17 RNA with G25U, U27C, G28C, U29A, C31A
DNA 1: CAATCTGAATTCCGGTCTCCC
DNA 2: TGGTGGCTACGACGGGATT
B21: AUCGGUG (DNA:RNA)
RNA: B17 RNA with G25A, U27C, U29G, C31G
DNA 1: CAATCTGAATTCCGGTCTCCC
DNA 2: TGGTGGCTACGACGGGATT
B22: GCAUCCA (DNA:RNA)
RNA: B1 RNA with C25G, A26C, G27A, C28U, G29C, G31A
DNA 1: CAATCTGAATTCCGGTCTCCC
DNA 2: TGGTGGCTACGACGGGATT
B23: UCAUGGU (DNA:RNA)
RNA: B1 RNA with C25U, A26C, G27A, C28U, C30G, G31U
DNA 1: CAATCTGAATTCCGGTCTCCC
DNA 2: TGGTGGCTACGACGGGATT
B24: AUGGAUA (DNA:RNA)
RNA: B17 RNA with G25A, U27G, U29A, C31A
DNA 1: CAATCTGAATTCCGGTCTCCC
DNA 2: TGGTGGCTACGACGGGATT
B25: AAGUUCA (DNA:RNA)
RNA: B1 RNA with C25A, C28U, G29U, G31A
DNA 1: CAATCTGAATTCCGGTCTCCC
DNA 2: TGGTGGCTACGACGGGATT
B26: CGCAUAC (DNA:RNA)
RNA: B17 RNA with G25C, U26G, U27C, G28A, U30A
DNA 1: CAATCTGAATTCCGGTCTCCC
DNA 2: TGGTGGCTACGACGGGATT
B27: CAAUCAU (DNA:RNA)
RNA: B1 RNA with G27A, C28U, G29C, C30A, G31U
DNA 1: CAATCTGAATTCCGGTCTCCC
DNA 2: TGGTGGCTACGACGGGATT
B28: GCGUACG (DNA:RNA)
RNA: B1 RNA with C25G, A26C, C28U, G29A
DNA 1: CAATCTGAATTCCGGTCTCCC
DNA 2: TGGTGGCTACGACGGGATT
B29: GUAAACU (DNA:RNA)
RNA: B17 RNA with U27A, G28A, U29A, U30C, C31U
DNA 1: CAATCTGAATTCCGGTCTCCC
DNA 2: TGGTGGCTACGACGGGATT
B30: GAAACUU (DNA:RNA)
RNA: B17 RNA with U26A, U27A, G28A, U29C, C31U
DNA 1: CAATCTGAATTCCGGTCTCCC
DNA 2: TGGTGGCTACGACGGGATT
B31: GCCGGAG (DNA:RNA)
RNA: B1 RNA with C25G, A26C, G27C, C28G, C30A
DNA 1: CAATCTGAATTCCGGTCTCCC
DNA 2: TGGTGGCTACGACGGGATT

Each binder was assayed against T1, RBFOX1 RRM (assay: EMSA; HiTS-Eq, 1 nM pool, 10 min; buffer printed only for the single-RNA assays: 10 mM Tris pH 7.5, 150 mM NaCl, 3.4 mM EDTA, 0.001% NP-40, 30 C). Settings: tags: His6 N-terminal (pET28a); label: 5' 32P.
How it was run: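 Purified RbFox RRM, wild type or mutant, was incubated for 10 min in 50 µL with 1 nM of a 5′-radiolabelled RNA pool carrying 7 randomized nucleotides, whose flanks were annealed to DNA oligonucleotides, over a series of increasing protein concentrations. Unbound RNA was resolved on 8% native PAGE, cut out, reverse-transcribed, barcoded by PCR and sequenced on an Illumina HiSeq 2500. Relative association constants were derived from changes in read counts for each RNA species versus the control reaction and normalised to the cognate motif.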

**Q.** Which binding signal does the source give for B1 here?
**A.** 0.0118 KA relative to UGCAUGU

**Q.** B2 was tested. Which binding signal did it give?
**A.** 0.00974 KA relative to UGCAUGU

**Q.** Which binding signal does the source give for B3 here?
**A.** 0.016 KA relative to UGCAUGU

**Q.** With B4 as the binder, how does the binding signal read?
**A.** 0.008 KA relative to UGCAUGU

**Q.** Which binding signal does the source give for B5 here?
**A.** 0.0115 KA relative to UGCAUGU

**Q.** Which binding signal does the source give for B6 here?
**A.** 0.00904 KA relative to UGCAUGU

**Q.** Which binding signal does the source give for B7 here?
**A.** 0.00505 KA relative to UGCAUGU

**Q.** How did the binding signal turn out when B8 was run?
**A.** 0.0215 KA relative to UGCAUGU

**Q.** Which binding signal does the source give for B9 here?
**A.** 0.0117 KA relative to UGCAUGU

**Q.** B10 was tested. Which binding signal did it give?
**A.** 0.00265 KA relative to UGCAUGU

**Q.** For B11, which binding signal is on record?
**A.** 0.00655 KA relative to UGCAUGU

**Q.** How did the binding signal turn out when B12 was run?
**A.** 0.0193 KA relative to UGCAUGU

**Q.** For B13, which binding signal is on record?
**A.** 0.00833 KA relative to UGCAUGU

**Q.** How did the binding signal turn out when B14 was run?
**A.** 0.00543 KA relative to UGCAUGU

**Q.** Which binding signal does the source give for B15 here?
**A.** 0.0112 KA relative to UGCAUGU

**Q.** With B16 as the binder, how does the binding signal read?
**A.** 0.0201 KA relative to UGCAUGU

**Q.** B17 was tested. Which binding signal did it give?
**A.** 0.0257 KA relative to UGCAUGU

**Q.** How did the binding signal turn out when B18 was run?
**A.** 0.0173 KA relative to UGCAUGU

**Q.** B19 was tested. Which binding signal did it give?
**A.** 0.00319 KA relative to UGCAUGU

**Q.** For B20, which binding signal is on record?
**A.** 0.00165 KA relative to UGCAUGU

**Q.** With B21 as the binder, how does the binding signal read?
**A.** 0.0182 KA relative to UGCAUGU

**Q.** How did the binding signal turn out when B22 was run?
**A.** 0.0224 KA relative to UGCAUGU

**Q.** With B23 as the binder, how does the binding signal read?
**A.** 0.0123 KA relative to UGCAUGU

**Q.** Which binding signal does the source give for B24 here?
**A.** 0.0112 KA relative to UGCAUGU

**Q.** For B25, which binding signal is on record?
**A.** 0.00423 KA relative to UGCAUGU

**Q.** B26 was tested. Which binding signal did it give?
**A.** 0.0068 KA relative to UGCAUGU

**Q.** B27 was tested. Which binding signal did it give?
**A.** 0.000223 KA relative to UGCAUGU

**Q.** How did the binding signal turn out when B28 was run?
**A.** 0.0138 KA relative to UGCAUGU

**Q.** How did the binding signal turn out when B29 was run?
**A.** 0.00365 KA relative to UGCAUGU

**Q.** How did the binding signal turn out when B30 was run?
**A.** 0.00505 KA relative to UGCAUGU

**Q.** How did the binding signal turn out when B31 was run?
**A.** 0.0113 KA relative to UGCAUGU
